Measurements published in the supplement of paper PMC12578646, “Prodrug florfenicol amine is activated by intrinsic resistance to target Mycobacterium abscessus” (Nature Microbiology, 2025).
M. abscessus ATCC 19977 and its deletion, point and complemented mutants after 5 days of drug at 37 °C plus 24 h of resazurin. Growth in % of untreated wells at the dose given (lower = more inhibition); checkerboards give % inhibition (higher = more inhibition); IC50 from the fitted curve (lower = more potent). No active / inactive call. IC50 values come from the same 384-well curves. Growth is not capped and can exceed 100%. The direction of the checkerboard scale is read from the raw signals. Capreomycin is a mixture.

Experiments:
Assay in all cases: growth relative to untreated wells; higher = more growth
[1] = test system: Mycobacterium abscessus ATCC 19977 ΔwhiB7
Description: (§1)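 Two-fold dose series, three replicates; 5 days at 37 °C, then 24 h with resazurin; fluorescence scaled to growth and killed controls.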

[2] = test system: Mycobacterium abscessus ATCC 19977 Δeis2 with pOLYG-aac(3)IV
Description: as §1

[3] = test system: Mycobacterium abscessus ATCC 19977 ΔwhiB7 with pOLYG-aac(3)IV-eis2
Description: as §1

[4] = test system: Mycobacterium abscessus ATCC 19977 Δeis2 with pOLYG-aac(3)IV-eis2
Description: as §1

[5] = test system: Mycobacterium abscessus ATCC 19977 WhiB7 A51T with pOLYG-aac(3)IV-eis2
Description: as §1

[6] = test system: Mycobacterium abscessus ATCC 19977 WhiB7 A51T with pOLYG-aac(3)IV
Description: as §1

[7] = test system: Mycobacterium abscessus ATCC 19977 ΔwhiB7 with pOLYG-aac(3)IV
Description: as §1

[8] = test system: Mycobacterium abscessus ATCC 19977
Description: as §1

[9] = test system: Mycobacterium abscessus ATCC 19977 Δcat
Description: as §1

[10] = test system: Mycobacterium abscessus ATCC 19977 Eis2 T258R with pOLYG-aac(3)IV-eis2
Description: as §1

[11] = test system: Mycobacterium abscessus ATCC 19977 Eis2 T258R with pOLYG-aac(3)IV
Description: as §1

N[C@H](CO)[C@H](O)c1ccc([N+](=O)[O-])cc1 [chloramphenicol amine]
Conditions | growth [%]
[1], 1 µg/mL | 87.5
[1], 2 µg/mL | 98.8
[1], 4 µg/mL | 101
[1], 8 µg/mL | 92.1
[1], 16 µg/mL | 101
[1], 32 µg/mL | 113
[1], 64 µg/mL | 109
[1], 128 µg/mL | 105
[1], 256 µg/mL | 66.6
[1], 512 µg/mL | 12.9
[2], 1 µg/mL | 90.4
[2], 2 µg/mL | 94.1
[2], 4 µg/mL | 103
[2], 8 µg/mL | 95.6
[2], 16 µg/mL | 81
[2], 32 µg/mL | 78.1
[2], 64 µg/mL | 94.1
[2], 128 µg/mL | 98.7
[2], 256 µg/mL | 108
[2], 512 µg/mL | 84.1
[2], 1024 µg/mL | 68.5
[3], 1 µg/mL | 102
[3], 2 µg/mL | 104
[3], 4 µg/mL | 108
[3], 8 µg/mL | 92.6
[3], 16 µg/mL | 70.5
[3], 32 µg/mL | 60.1
[3], 64 µg/mL | 36.3
[3], 128 µg/mL | 2.93
[3], 256 µg/mL | -0.111
[3], 512 µg/mL | -0.518
[3], 1024 µg/mL | -1.14
[4], 1 µg/mL | 102
[4], 2 µg/mL | 109.2
[4], 4 µg/mL | 113
[4], 8 µg/mL | 112
[4], 16 µg/mL | 107
[4], 32 µg/mL | 100
[4], 64 µg/mL | 72.3
[4], 128 µg/mL | 36.2
[4], 256 µg/mL | 7.8
[4], 512 µg/mL | 1.87
[4], 1024 µg/mL | 0.535
[5], 1 µg/mL | 105
[5], 2 µg/mL | 112
[5], 4 µg/mL | 105
[5], 8 µg/mL | 99.5
[5], 16 µg/mL | 69.3
[5], 32 µg/mL | 61.5
[5], 64 µg/mL | 43.4
[5], 128 µg/mL | 3.45
[5], 256 µg/mL | 0.18
[5], 512 µg/mL | -0.129
[5], 1024 µg/mL | -1.35
[6], 1 µg/mL | 101
[6], 2 µg/mL | 103
[6], 4 µg/mL | 103
[6], 8 µg/mL | 103
[6], 16 µg/mL | 98
[6], 32 µg/mL | 94.44
[6], 64 µg/mL | 106
[6], 128 µg/mL | 86.8
[6], 256 µg/mL | 76.8
[6], 512 µg/mL | 56.8
[6], 1024 µg/mL | -1.63
[7], 1 µg/mL | 105
[7], 2 µg/mL | 104
[7], 4 µg/mL | 99.5
[7], 8 µg/mL | 96.7
[7], 16 µg/mL | 93.7
[7], 32 µg/mL | 92.5
[7], 64 µg/mL | 101
[7], 128 µg/mL | 84.7
[7], 256 µg/mL | 76.5
[7], 512 µg/mL | 40.3
[7], 1024 µg/mL | 1.32
[8], 1 µg/mL | 99.1
[8], 2 µg/mL | 105
[8], 4 µg/mL | 102
[8], 8 µg/mL | 106
[8], 16 µg/mL | 114
[8], 32 µg/mL | 100
[8], 64 µg/mL | 94.8
[8], 128 µg/mL | 76.6
[8], 256 µg/mL | 3.5
[8], 512 µg/mL | -0.313
[9], 1 µg/mL | 96.8
[9], 2 µg/mL | 93.7
[9], 4 µg/mL | 74.9
[9], 8 µg/mL | 50
[9], 16 µg/mL | 36.7
[9], 32 µg/mL | 23.3
[9], 64 µg/mL | 0.503
[9], 128 µg/mL | -3.64
[9], 256 µg/mL | -3.7
[9], 512 µg/mL | -2.58
[10], 1 µg/mL | 105
[10], 2 µg/mL | 104
[10], 4 µg/mL | 103
[10], 8 µg/mL | 96.8
[10], 16 µg/mL | 86.6
[10], 32 µg/mL | 76.2
[10], 64 µg/mL | 61.1
[10], 128 µg/mL | 20.8
[10], 256 µg/mL | 2.17
[10], 512 µg/mL | -0.201
[10], 1024 µg/mL | 0.0843
[11], 1 µg/mL | 91
[11], 2 µg/mL | 104
[11], 4 µg/mL | 104
[11], 8 µg/mL | 98.4
[11], 16 µg/mL | 97.3
[11], 32 µg/mL | 88.9
[11], 64 µg/mL | 99.5
[11], 128 µg/mL | 99.9
[11], 256 µg/mL | 101
[11], 512 µg/mL | 91.36
[11], 1024 µg/mL | 59
